# Experimental data published in the supplement of paper PMC3334620.
# The full ranking holds about 33,000 sequences; the median of “E-score (-0.5 to 0.5)” is about -0.054, and the highest 2% start at about 0.39. The list shows a part of the results.
# Molecular target: Ylr278c (UniProt Q05854)
# Assay: PBM E-score (8-mer binding enrichment) (E-score (-0.5 to 0.5)); higher = stronger / more preferred TF binding; most listed sequences are background and not binding sites
# Conditions: protein concentration: 200 nM; construct: GST-DNA-binding domain
# Method in brief: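 Yeast transcription factors carrying a GST tag, as full-length proteins or DNA-binding domains, were produced by PURExpress in vitro transcription/translation. About 100-200 nM protein was applied to universal all-10-mer Agilent arrays, double-stranded by primer extension on fresh or once-stripped slides. Bound protein was detected with fluorescent anti-GST, and scans were normalised with masliner. The Universal PBM Analysis Suite gave each ungapped eight-base word, pooled with its reverse complement, an E-score, a modified Wilcoxon-Mann-Whitney statistic.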
row,Sequence,PBM E-score
1,GATAAAAA,0.0302
2,AAAGTGTC,0.0897
3,ACTATGGA,-0.127
4,ATATACTG,0.0334
5,ATTTTTTC,0.155
6,AGGCAAGC,-0.0705
7,CCAAGTAG,-0.329
8,CCTGGTCG,0.111
9,CGAGATTC,0.0465
10,CATGATAC,-0.0486
11,CTGGCTGC,-0.107
12,CGTCCCTA,-0.216
13,CGAATGAA,-0.0184
14,CTTTTGCC,0.093
15,GGACAGCA,-0.0659
16,GAGACCCC,0.0577
17,ATTTCCTG,0.0615
18,GCAGAAAC,-0.136
19,AGATCGCG,0.157
20,AAGTTACG,-0.0404
21,GACACGCA,0.0396
22,ACTAAAAG,0.121
23,GCTAGATA,-0.085
24,TATAGTCA,-0.256
25,GTATGGTA,-0.228

row,Sequence,PBM E-score
1,CCAGACTC,-0.0856
2,AAGCTGAG,-0.143
3,CTAAGAGA,-0.253
4,CGAGAACC,-0.0335
5,CCCCTAGG,-0.173
6,GAGAGCAC,-0.146
7,GACAGTAC,0.0964
8,GAATCTAC,-0.178
9,CTTAGTTC,0.00353
10,ACCGTTCT,-0.0784
11,AAGACGGC,-0.016
12,GAGTGCAA,0.0084
13,TCAAAGGA,-0.286
14,CGCAATGC,-0.0156
15,ACCACAGT,-0.146
16,ATGTTATG,-0.152
17,GTAGATAC,-0.233
18,CACCACTA,-0.012
19,CAGGACCC,0.00694
20,CGCAGTGA,-0.0535
21,ATTGTAAC,-0.107
22,CCAGGACG,-0.157
23,GCAGGTCC,0.0435
24,CCACGAAC,-0.0073
25,ACATGACG,-0.0913

row,Sequence,PBM E-score
1,CAGGGTAG,-0.0792
2,AGTCTACG,-0.143
3,AGCAACAC,-0.082
4,GGTCCACC,-0.0108
5,AGCTATCA,-0.107
6,GTCCAGAC,-0.317
7,GAAAGAAA,0.0399
8,GCTACTGA,-0.0378
9,CAGTGACC,-0.0854
10,CCTGCAAA,-0.137
11,AACGGTAA,0.0061
12,ACTCCCGA,0.217
13,GTAGGGTA,-0.0476
14,GTAAGCAC,-0.193
15,TACAAGAA,0.0729
16,CTAGTCAC,-0.113
17,CCGGGCTA,0.335
18,CACAGGTG,-0.132
19,CTGCCCAA,-0.161
20,GTTGACAA,0.0679
21,ATACGTGC,-0.0115
22,AACTACCC,-0.143
23,AAGGTAGA,-0.13
24,AGATTTAA,0.0218
25,ACACGCGC,0.138

row,Sequence,PBM E-score
1,CTAAGGCA,-0.0034
2,AATCGTAG,-0.197
3,CGTCCCAC,0.0936
4,GAGTTGCA,0.00691
5,CTCGAATA,-0.144
6,CCGCACAA,0.127
7,ATGCACCG,0.178
8,AAAGAATT,-0.0164
9,CAAAGAGG,-0.201
10,GATTCATA,-0.0792
11,AATCGACT,-0.262
12,CTAGGAGC,0.0194
13,CAATAGCC,-0.203
14,CCTCGCTC,-0.0394
15,TGGTTCAA,-0.118
16,ACGTGACT,-0.251
17,CCTAGCAA,-0.101
18,GACACGAC,-0.157
19,CGACCGCA,0.183
20,AATGACTA,-0.169
21,AAGATGAT,-0.185
22,ATGTGGGG,-0.113
23,AGCTGTAG,-0.127
24,GCCCCCAA,-0.387
25,ACATTGGT,-0.1

row,Sequence,PBM E-score
1,GGTAGAAC,-0.164
2,ACTATAAG,-0.183
3,GAGGTGGC,-0.0782
4,TGGATTAA,-0.101
5,CTCCCGTA,0.0526
6,AGCCGAAA,0.169
7,CGCTGACA,-0.00094
8,GGCTTGCA,-0.118
9,GTGCTAAC,0.134
10,AATTTACC,0.064
11,ATCATATA,-0.142
12,CCACAATC,0.0776
13,CTCCTATA,-0.237
14,CGTGCCTC,0.00113
15,GCACTTAC,-0.00945
16,TAAGGACA,-0.156
17,GAACTGAA,-0.00699
18,AGTCCGGC,0.44
19,ACATAGAG,-0.255
20,CAGGAAGA,-0.0182
21,ACGTCTGA,-0.195
22,ACAATGCT,-0.188
23,CTGACACC,-0.0644
24,ACGGACCA,0.274
25,CTATAAGA,-0.286

row,Sequence,PBM E-score
1,GCCCTTAC,-0.0812
2,ACCACCAG,-0.17
3,CAGGGGCC,-0.0973
4,ACTCGAGA,-0.0777
5,GCGGGCAC,0.267
6,CTCCTCAG,-0.166
7,GTCATCGA,-0.239
8,TCCGTCGA,0.326
9,TCGAAACA,-0.109
10,CTTCCAGC,-0.09
11,TCCTGCGA,-0.0109
12,ATGCTTTA,-0.13
13,GGCGCGCA,0.171
14,CGGAGGTA,0.426
15,AGAGGTCG,0.00929
16,AGCTTTTC,-0.0398
17,CTTGTAAC,-0.0525
18,AGGTTACG,-0.14
19,CTCGAGTA,-0.134
20,CCGCAGTA,0.0633
21,ACATTAGT,-0.176
22,GTAAGCAA,-0.0677
23,TACGAGGA,-0.0382
24,AATACTTA,-0.108
25,CTTTTGGC,-0.197

row,Sequence,PBM E-score
1,AATGCAAC,-0.231
2,ATACTTAA,-0.0506
3,TAATTCGA,-0.31
4,CTGACATC,-0.0317
5,ATTTCAGC,-0.131
6,CAGTTTAA,-0.0515
7,ACCTGGGA,-0.0989
8,AAGTGGTC,-0.012
9,CTGCCATC,-0.0723
10,GAGGTACC,0.0243
11,ACCCGCTA,0.0924
12,AGAAGTAA,-0.127
13,ATTCTGTA,-0.0732
14,CGACACCC,0.0622
15,CGCATCTA,0.183
16,CATGTCCC,-0.00532
17,AAATTATG,0.00911
18,CCGTTAAG,-0.0625
19,GATCAGCC,-0.123
20,TGCAATAA,-0.0609
21,CGGATTGA,0.247
22,AACGTGAC,-0.0927
